Measurements as given in the supplement of paper PMC12217912.
Some of the results follow. Sequences were assembled here from the parent chain. Inactive controls read about 0.05.

B1: TEV protease; numbered along this chain (parent)
chain: MGESLFKGPRDYNPISSSICHLTNESDGHTTSLYGIGFGPFIITNKHLFRRNNGTLVVQSLHGVFKVKDTTTLQQHLVDGRDMIIIRMPKDFPPFPQKLKFREPQREERICLVTTNFQTKSMSSMVSDTSCTFPSGDGIFWKHWIQTKDGQCGSPLVSTRDGFIVGIHSASNFTNTNNYFTSVPKNFMELLTNQEAQQWVSGWRLNADSVLWGGHKVFMVKPEEPFQPVKEATQL

Variants of: B1
Test: raw area under fraction-flipped curve 0-4 h after induction (AUC4h, not background-subtracted), DNA-recorder readout of cleavage of the substrate (dimensionless); higher = more cleavage of the substrate by the protease variant
Details: temperature: 34 °C; time window: 0-4 h after rhamnose induction
Description: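 In vivo DNA recorder in E. coli TOP10(DE3) ΔrhaA at 34 °C. Each TEVp single-site mutant (parent TEVp 0) is paired with a single-site variant of the 7-mer TEVs (canonical ENLYFQ|S). The substrate sits between flexible linkers in a Bxb1-sfGFP-TEVs-SsrA fusion, so cleavage stabilises Bxb1 and speeds flipping of a recombination array, read by NGS. The value is the raw area under the fraction-flipped curve over 0-4 h after rhamnose induction (AUC4h), with ≥20 reads per time point. It is not background-subtracted; inactive controls average about 0.047.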
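Note: Bxb1 expression induced with 0.2% (w/v) L-rhamnose at OD600 near 0.5, cultures sampled hourly, flipped fraction per protease–substrate barcode pair counted by paired-end Illumina sequencing.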

| Variant | area with substrate CNLYFQS | area with substrate GNLYFQS | area with substrate HNLYFQS | area with substrate INLYFQS | area with substrate MNLYFQS | area with substrate SNLYFQS | area with substrate WNLYFQS | area with substrate LNLYFQS | area with substrate PNLYFQS | area with substrate TNLYFQS | area with substrate FNLYFQS | area with substrate NNLYFQS | area with substrate VNLYFQS | area with substrate YNLYFQS | area with substrate QNLYFQS | area with substrate RNLYFQS | area with substrate KNLYFQS |
| --- | --- | --- | --- | --- | --- | --- | --- | --- | --- | --- | --- | --- | --- | --- | --- | --- | --- |
| Q75V | 0.0676 | 0.0672 | 0.0754 | 0.0558 | 0.0668 | 0.0057 | 0.0611 | – | – | – | – | – | – | – | – | – | – |
| Q75I | 0.0616 | – | 0.0592 | 0.0587 | 0.071 | – | 0.0576 | 0.0573 | 0.0615 | 0.0763 | – | – | – | – | – | – | – |
| R87I | 0.0549 | 0.0658 | 0.06 | – | – | 0.0617 | 0.0553 | 0.0667 | 0.0625 | 0.0604 | 0.0618 | 0.0643 | 0.0642 | 0.0651 | – | – | – |
| R87S | 0.0509 | 0.0705 | 0.0563 | 0.0705 | 0.0638 | – | 0.0585 | 0.0563 | – | 0.0752 | 0.0539 | 0.0527 | 0.07 | – | 0.0873 | – | – |
| R87F | 0.0618 | 0.0648 | 0.0756 | – | – | 0.0615 | 0.0664 | 0.0719 | 0.0672 | 0.0623 | 0.061 | 0.0607 | 0.0595 | 0.0594 | 0.0604 | – | – |
| R87Y | 0.0864 | – | 0.0611 | – | – | 0.0997 | 0.0736 | – | – | 0.0786 | 0.0661 | – | – | – | – | – | – |
| R87C | 0.0668 | – | 0.0692 | – | 0.0624 | 0.0639 | – | – | – | 0.0631 | 0.0612 | – | – | 0.0702 | – | – | – |
| R87A | 0.0609 | 0.068 | – | – | – | – | 0.0628 | 0.0621 | 0.0913 | 0.0557 | 0.0597 | – | – | 0.0614 | – | 0.0758 | – |
| L73N | 0.0445 | – | 0.0547 | 0.0445 | 0.0512 | – | 0.0567 | 0.0561 | 0.0631 | 0.0563 | – | 0.0631 | – | 0.0533 | – | – | 0.0231 |
| L73C | 0.0525 | 0.058 | 0.0733 | 0.0422 | 0.0656 | – | 0.051 | 0.0487 | 0.0682 | 0.0614 | 0.0507 | 0.0535 | – | – | 0.0483 | – | – |
| L73K | 0.0404 | 0.0415 | – | – | 0.0423 | – | 0.0576 | – | – | – | 0.0501 | 0.0488 | – | 0.0573 | 0.0618 | 0.0638 | – |
| L73H | 0.0642 | 0.0592 | – | – | 0.0526 | 0.0524 | 0.0471 | – | 0.0537 | 0.0353 | – | – | – | 0.054 | – | – | – |
| L73D | 0.0785 | 0.0554 | 0.0606 | – | – | 0.0711 | 0.0334 | 0.0507 | – | 0.0523 | 0.0522 | – | 0.0585 | 0.05 | – | – | 0.0307 |
| P94F | 0.0553 | – | – | – | – | – | – | – | 0.0662 | 0.0707 | 0.0823 | – | – | – | – | 0.0678 | 0.087 |
| P94S | 0.094 | – | – | – | – | – | 0.0637 | – | 0.0836 | – | – | – | – | – | – | – | – |
| P94R | 0.0804 | – | 0.0625 | – | 0.0846 | – | 0.0628 | 0.0595 | 0.0703 | – | – | 0.0578 | 0.0712 | 0.0674 | – | 0.0594 | 0.0468 |
| F95D | 0.0491 | 0.0422 | – | 0.0434 | 0.0435 | 0.0271 | – | 0.0636 | 0.0454 | – | – | – | – | – | 0.0432 | – | 0.0333 |
| F95C | 0.0719 | – | 0.0689 | – | 0.0582 | – | 0.0482 | – | 0.0844 | – | – | – | – | – | – | – | – |
| D79P | 0.0743 | – | – | – | – | – | 0.0564 | 0.0734 | – | 0.0625 | – | – | – | – | 0.0689 | – | – |

| Variant | area with substrate CNLYFQS | area with substrate GNLYFQS | area with substrate HNLYFQS | area with substrate INLYFQS | area with substrate MNLYFQS | area with substrate SNLYFQS | area with substrate WNLYFQS | area with substrate LNLYFQS | area with substrate PNLYFQS | area with substrate TNLYFQS | area with substrate FNLYFQS | area with substrate NNLYFQS | area with substrate VNLYFQS | area with substrate YNLYFQS | area with substrate QNLYFQS | area with substrate RNLYFQS | area with substrate KNLYFQS |
| --- | --- | --- | --- | --- | --- | --- | --- | --- | --- | --- | --- | --- | --- | --- | --- | --- | --- |
| D91I | 0.0716 | 0.0751 | 0.0754 | 0.0609 | 0.0771 | – | 0.0647 | – | – | 0.054 | – | 0.0699 | 0.0236 | – | – | – | – |
| D91R | 0.0753 | 0.0562 | 0.0939 | – | – | 0.0806 | 0.0465 | – | – | – | – | – | – | – | – | – | 0.0739 |
| D91K | 0.0717 | – | – | – | – | 0.0691 | – | 0.0642 | – | 0.0623 | 0.0639 | – | – | – | 0.0988 | – | – |
| D91N | 0.0614 | – | 0.047 | – | 0.0547 | 0.0574 | 0.0775 | – | – | – | – | 0.0671 | – | 0.089 | – | – | – |
| G80S | 0.0611 | 0.0699 | – | 0.0425 | – | 0.0711 | – | 0.063 | – | – | – | 0.0614 | – | 0.0635 | – | – | – |
| I84T | 0.0629 | 0.0653 | 0.0581 | 0.056 | – | – | 0.054 | 0.0702 | – | 0.0739 | 0.111 | – | – | – | – | – | – |
| I84D | 0.0511 | – | 0.0459 | 0.0385 | 0.0453 | 0.0474 | 0.043 | – | 0.0486 | 0.0569 | 0.0358 | 0.0602 | 0.0579 | 0.0531 | – | 0.035 | – |
| I84R | 0.0478 | 0.0411 | 0.0626 | 0.0461 | 0.0407 | 0.0574 | – | 0.065 | 0.0557 | – | – | – | – | – | – | 0.0453 | 0.0526 |
| I86S | 0.0544 | 0.0134 | 0.0434 | 0.0255 | 0.0356 | 0.0566 | 0.0454 | – | 0.0519 | – | 0.0401 | – | 0.0561 | 0.0446 | – | 0.0507 | 0.0767 |
| I86T | 0.0063 | 0.064 | – | 0.0636 | 0.0696 | 0.0625 | 0.0457 | – | – | – | – | 0.0542 | – | – | – | – | – |
| I86L | 0.0715 | – | – | 0.0621 | 0.0882 | – | 0.0572 | – | – | 0.0658 | – | – | – | – | – | – | – |
| V78R | 0.0537 | 0.0634 | 0.0497 | – | – | 0.0458 | – | – | 0.0577 | 0.054 | – | 0.0587 | 0.0571 | – | – | – | – |
| V78L | 0.0716 | – | 0.0743 | – | 0.0559 | – | 0.0565 | – | – | 0.0473 | 0.08 | – | 0.077 | 0.0621 | – | – | – |
| H76K | 0.0673 | – | 0.0624 | – | – | 0.0495 | – | 0.0655 | 0.0467 | 0.0561 | 0.0528 | – | – | 0.0618 | – | – | 0.0672 |
| H76V | 0.0776 | – | – | – | – | 0.0594 | 0.0415 | 0.0535 | 0.0687 | 0.0683 | 0.069 | 0.0749 | – | 0.0703 | – | – | – |
| R81W | 0.0459 | – | – | – | – | 0.0672 | 0.0651 | 0.0693 | 0.0702 | – | 0.0576 | 0.0765 | – | – | 0.0809 | 0.0719 | 0.0539 |
| R81S | 0.0548 | 0.0603 | 0.0618 | – | 0.0645 | 0.0572 | 0.0746 | 0.0582 | 0.0603 | 0.0617 | 0.0615 | – | – | 0.0653 | 0.0596 | – | 0.071 |
| R81Y | 0.0599 | – | 0.0642 | 0.0622 | 0.0877 | 0.0646 | 0.0602 | 0.0661 | – | 0.0643 | 0.0659 | 0.0613 | – | 0.061 | – | 0.0486 | 0.0644 |
| D69Y | 0.102 | 0.0603 | 0.056 | – | 0.054 | 0.0665 | – | 0.0698 | – | 0.0589 | – | – | 0.066 | – | – | – | – |
